PMC9925317
No constants are given. Whether binding was seen depends on the method and setting. For part of these data: In cells and extracts the contact can be indirect. Some results given as binding are weak or reduced against the parent protein; the word gives no strength. For part of these data: Sequences can lack the tags named with a protein. Blank lines part the entries; values can stand above or below the substance they belong to.

Protein sequences, listed by entry. Tags and fused reporters are not part of them.
UniProt Q14839: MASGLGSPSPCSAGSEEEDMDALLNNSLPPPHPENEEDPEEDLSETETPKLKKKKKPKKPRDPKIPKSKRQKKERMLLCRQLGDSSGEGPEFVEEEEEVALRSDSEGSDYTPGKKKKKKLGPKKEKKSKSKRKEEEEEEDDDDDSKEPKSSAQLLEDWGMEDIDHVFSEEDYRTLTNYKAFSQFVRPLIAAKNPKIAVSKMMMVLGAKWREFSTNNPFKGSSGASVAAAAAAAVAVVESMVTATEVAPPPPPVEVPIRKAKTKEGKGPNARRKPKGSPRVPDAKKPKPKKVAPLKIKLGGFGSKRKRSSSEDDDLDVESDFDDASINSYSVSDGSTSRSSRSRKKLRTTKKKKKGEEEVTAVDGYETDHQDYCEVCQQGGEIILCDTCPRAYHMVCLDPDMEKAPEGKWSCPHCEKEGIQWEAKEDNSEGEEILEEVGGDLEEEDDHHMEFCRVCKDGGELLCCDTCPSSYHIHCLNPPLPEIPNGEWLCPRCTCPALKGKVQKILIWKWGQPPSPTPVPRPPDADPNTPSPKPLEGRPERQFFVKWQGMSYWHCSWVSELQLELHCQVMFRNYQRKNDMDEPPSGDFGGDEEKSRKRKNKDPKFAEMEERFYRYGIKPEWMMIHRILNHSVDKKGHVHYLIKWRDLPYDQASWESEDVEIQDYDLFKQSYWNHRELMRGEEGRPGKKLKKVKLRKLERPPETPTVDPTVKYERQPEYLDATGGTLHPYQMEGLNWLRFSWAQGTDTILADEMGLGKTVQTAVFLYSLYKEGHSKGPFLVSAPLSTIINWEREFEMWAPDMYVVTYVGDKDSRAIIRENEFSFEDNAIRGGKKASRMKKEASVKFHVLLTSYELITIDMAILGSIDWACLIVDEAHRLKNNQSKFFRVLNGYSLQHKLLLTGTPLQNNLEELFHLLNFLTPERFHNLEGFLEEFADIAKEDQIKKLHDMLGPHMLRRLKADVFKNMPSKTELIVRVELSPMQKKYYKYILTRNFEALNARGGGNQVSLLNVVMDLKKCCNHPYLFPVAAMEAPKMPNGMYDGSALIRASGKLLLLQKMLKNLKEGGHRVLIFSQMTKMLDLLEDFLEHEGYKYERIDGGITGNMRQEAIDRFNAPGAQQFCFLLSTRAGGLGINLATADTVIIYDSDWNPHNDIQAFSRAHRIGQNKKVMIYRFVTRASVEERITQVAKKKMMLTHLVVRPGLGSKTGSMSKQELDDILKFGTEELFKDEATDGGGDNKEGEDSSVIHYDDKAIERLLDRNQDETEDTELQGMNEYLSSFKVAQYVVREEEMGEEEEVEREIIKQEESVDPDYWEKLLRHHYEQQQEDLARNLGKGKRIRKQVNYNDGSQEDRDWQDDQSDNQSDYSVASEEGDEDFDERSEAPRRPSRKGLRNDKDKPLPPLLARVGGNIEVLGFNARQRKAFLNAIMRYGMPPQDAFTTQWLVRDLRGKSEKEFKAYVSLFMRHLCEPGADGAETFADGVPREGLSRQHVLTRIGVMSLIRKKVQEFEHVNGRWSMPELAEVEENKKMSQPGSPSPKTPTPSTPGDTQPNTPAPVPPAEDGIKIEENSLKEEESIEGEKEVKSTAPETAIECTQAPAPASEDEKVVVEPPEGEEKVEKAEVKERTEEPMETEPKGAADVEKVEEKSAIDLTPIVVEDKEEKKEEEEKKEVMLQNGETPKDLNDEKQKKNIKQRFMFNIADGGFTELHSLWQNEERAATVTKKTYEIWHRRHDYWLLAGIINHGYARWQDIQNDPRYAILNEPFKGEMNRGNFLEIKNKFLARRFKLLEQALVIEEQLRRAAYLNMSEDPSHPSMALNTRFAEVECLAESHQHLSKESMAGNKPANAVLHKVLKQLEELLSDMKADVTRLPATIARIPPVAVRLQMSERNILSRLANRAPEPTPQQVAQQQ
UniProt P63279: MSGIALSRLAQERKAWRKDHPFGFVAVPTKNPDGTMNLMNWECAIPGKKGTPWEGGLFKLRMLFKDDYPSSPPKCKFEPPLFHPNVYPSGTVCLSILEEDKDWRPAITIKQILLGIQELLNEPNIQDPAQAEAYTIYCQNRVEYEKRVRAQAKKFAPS
UniProt Q13263: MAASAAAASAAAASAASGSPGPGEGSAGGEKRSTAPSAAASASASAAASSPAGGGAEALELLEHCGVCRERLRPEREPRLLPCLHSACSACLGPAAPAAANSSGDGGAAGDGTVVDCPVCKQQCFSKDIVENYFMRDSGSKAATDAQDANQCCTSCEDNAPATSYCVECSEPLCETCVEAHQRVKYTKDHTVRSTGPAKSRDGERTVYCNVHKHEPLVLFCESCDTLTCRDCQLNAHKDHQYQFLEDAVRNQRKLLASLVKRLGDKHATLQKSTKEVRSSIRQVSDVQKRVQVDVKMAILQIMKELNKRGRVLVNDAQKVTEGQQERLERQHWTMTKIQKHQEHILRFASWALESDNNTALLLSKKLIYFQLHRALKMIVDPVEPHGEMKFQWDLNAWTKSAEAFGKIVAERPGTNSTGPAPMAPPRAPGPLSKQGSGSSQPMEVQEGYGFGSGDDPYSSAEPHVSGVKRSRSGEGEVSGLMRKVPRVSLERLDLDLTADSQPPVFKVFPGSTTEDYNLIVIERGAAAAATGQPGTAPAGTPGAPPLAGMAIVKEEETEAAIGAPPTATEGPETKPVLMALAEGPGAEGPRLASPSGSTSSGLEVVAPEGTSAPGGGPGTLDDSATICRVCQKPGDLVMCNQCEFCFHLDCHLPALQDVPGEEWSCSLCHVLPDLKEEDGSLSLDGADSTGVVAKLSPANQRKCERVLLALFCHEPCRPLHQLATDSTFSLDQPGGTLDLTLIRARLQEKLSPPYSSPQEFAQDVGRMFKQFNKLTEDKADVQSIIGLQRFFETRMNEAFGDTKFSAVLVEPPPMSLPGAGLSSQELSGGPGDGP

Legend:
[1] = target: T1, endogenous MORC2 (human (endogenous in HEK293T, MCF-7, T47D)) (UniProt Q9Y6X9); experiment: co-IP; endogenous proteins, MCF-7 and T47D cells treated with or without 1 uM ML-792 for 24 h; anti-MORC2 antibody; immunoblotting
T1 sequence: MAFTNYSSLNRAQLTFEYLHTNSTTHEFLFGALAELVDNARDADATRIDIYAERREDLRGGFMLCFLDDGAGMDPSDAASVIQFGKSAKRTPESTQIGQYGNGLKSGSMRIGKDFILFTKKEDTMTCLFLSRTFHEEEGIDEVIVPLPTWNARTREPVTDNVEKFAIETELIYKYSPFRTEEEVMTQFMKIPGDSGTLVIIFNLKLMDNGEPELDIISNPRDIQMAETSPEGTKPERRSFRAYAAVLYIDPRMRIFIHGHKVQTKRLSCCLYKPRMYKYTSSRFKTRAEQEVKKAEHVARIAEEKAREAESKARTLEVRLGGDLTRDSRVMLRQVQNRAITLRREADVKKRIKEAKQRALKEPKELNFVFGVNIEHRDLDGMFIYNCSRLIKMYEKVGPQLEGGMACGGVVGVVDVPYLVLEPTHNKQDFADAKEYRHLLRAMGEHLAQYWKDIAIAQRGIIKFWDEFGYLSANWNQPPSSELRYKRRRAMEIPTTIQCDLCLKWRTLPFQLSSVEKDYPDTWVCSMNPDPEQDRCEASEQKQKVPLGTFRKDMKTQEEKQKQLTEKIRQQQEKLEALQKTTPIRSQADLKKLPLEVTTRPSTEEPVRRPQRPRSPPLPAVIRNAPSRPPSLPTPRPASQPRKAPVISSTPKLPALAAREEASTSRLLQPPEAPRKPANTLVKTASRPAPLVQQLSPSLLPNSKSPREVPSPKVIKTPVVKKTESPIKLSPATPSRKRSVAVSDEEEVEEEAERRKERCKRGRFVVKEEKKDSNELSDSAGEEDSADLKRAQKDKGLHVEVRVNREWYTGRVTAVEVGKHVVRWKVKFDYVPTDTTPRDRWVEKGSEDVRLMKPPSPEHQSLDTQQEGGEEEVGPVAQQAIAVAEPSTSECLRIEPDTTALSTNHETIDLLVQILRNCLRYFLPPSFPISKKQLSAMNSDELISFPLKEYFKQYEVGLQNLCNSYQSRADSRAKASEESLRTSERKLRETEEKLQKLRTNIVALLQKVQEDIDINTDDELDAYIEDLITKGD

[2] = target: T2, SUMOylated MORC2 (WT Flag-MORC2 co-expressed with GFP-SUMOs in HEK293T cells) (human) (UniProt Q9Y6X9); experiment: co-IP; HEK293T cells transfected with WT or K767R MORC2 alone or with GFP-SUMO plasmids for 48 h; anti-Flag beads; endogenous partners immunoblotted
T2 sequence (chain, SUMO (GFP-SUMO1, GFP-SUMO2, GFP-SUMO3 co-expressed) conjugated at lysine 767): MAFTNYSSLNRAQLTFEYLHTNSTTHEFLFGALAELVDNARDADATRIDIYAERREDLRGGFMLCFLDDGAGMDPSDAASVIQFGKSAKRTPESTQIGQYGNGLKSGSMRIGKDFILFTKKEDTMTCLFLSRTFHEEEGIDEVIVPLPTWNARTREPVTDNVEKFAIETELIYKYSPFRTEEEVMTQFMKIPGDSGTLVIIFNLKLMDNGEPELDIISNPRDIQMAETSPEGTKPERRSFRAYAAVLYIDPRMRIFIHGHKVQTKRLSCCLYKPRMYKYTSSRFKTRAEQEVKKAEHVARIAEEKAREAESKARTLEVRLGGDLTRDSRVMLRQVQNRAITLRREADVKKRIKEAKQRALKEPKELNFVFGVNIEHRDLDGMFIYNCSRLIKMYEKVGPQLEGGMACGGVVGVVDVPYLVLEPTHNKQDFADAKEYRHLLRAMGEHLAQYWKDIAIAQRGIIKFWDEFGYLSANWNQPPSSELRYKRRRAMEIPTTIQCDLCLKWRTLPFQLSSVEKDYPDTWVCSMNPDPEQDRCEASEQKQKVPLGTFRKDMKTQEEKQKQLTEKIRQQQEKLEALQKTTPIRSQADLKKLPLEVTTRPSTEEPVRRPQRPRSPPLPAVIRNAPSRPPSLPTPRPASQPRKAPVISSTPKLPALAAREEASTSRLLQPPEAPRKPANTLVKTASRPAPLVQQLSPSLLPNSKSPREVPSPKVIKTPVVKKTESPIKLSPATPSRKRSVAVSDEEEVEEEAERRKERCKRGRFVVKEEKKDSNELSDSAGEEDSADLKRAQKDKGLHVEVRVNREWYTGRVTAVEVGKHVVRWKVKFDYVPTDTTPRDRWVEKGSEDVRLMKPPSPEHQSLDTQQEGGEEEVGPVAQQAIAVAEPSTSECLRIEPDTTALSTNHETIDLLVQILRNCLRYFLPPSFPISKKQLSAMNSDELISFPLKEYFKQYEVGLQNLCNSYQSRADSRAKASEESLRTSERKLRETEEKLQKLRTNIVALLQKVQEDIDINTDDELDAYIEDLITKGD

[3] = target: T1, endogenous MORC2 (human (endogenous in HEK293T, MCF-7, T47D)); experiment: co-IP; endogenous proteins, HEK293T total cellular lysates; anti-MORC2 or anti-UBC9 antibody; immunoblotting
[4] = target: T3, GST-tagged MORC2 fusion protein (human) (UniProt Q9Y6X9); experiment: pull-down; GST-tagged MORC2 on glutathione beads with recombinant Flag-TRIM28; binding buffer 20 mM Tris pH7.5, 500 mM NaCl, 0.5% NP40, 10% glycerol, 4 C overnight; immunoblotting; both purified
T3 sequence: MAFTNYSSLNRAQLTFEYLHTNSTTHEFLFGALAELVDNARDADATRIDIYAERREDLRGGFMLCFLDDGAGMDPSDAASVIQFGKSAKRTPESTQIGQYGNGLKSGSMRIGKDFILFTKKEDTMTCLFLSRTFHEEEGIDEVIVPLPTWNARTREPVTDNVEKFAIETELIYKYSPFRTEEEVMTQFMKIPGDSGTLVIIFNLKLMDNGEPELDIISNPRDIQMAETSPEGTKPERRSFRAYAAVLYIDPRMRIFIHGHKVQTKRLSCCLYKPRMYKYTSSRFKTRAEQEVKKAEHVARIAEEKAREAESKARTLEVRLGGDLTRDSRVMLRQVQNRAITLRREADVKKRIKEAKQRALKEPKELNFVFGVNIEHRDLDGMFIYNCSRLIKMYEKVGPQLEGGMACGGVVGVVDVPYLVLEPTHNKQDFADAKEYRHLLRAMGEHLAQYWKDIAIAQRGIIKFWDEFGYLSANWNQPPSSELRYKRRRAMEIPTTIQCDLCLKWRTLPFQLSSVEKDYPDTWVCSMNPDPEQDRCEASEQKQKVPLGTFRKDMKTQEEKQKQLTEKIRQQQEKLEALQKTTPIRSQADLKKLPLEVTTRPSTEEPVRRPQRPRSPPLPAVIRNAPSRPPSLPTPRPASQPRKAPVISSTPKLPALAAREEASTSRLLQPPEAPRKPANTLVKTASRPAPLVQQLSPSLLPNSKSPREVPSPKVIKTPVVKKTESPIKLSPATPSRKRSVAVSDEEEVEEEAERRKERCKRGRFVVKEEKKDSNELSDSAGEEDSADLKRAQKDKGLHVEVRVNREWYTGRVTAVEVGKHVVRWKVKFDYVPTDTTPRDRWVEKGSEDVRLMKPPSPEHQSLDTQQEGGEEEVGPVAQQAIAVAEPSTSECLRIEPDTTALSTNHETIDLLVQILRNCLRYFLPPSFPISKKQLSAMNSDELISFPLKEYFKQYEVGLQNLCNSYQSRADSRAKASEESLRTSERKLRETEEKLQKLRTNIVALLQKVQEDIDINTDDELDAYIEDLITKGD

[5] = target: T1, endogenous MORC2 (human (endogenous in HEK293T, MCF-7, T47D)); experiment: co-IP; endogenous proteins, MCF-7 lysates; control IgG, anti-MORC2 or anti-TRIM28 antibody; immunoblotting
[6] = target: T4, Flag-MORC2, stably expressed in MCF-7 cells (human) (UniProt Q9Y6X9); experiment: co-IP; MCF-7 cells stably expressing Flag-MORC2; with or without 1 uM ADR for 2 h and release for the indicated times, with or without 1 uM ML-792; anti-Flag beads; endogenous partners immunoblotted
T4 sequence: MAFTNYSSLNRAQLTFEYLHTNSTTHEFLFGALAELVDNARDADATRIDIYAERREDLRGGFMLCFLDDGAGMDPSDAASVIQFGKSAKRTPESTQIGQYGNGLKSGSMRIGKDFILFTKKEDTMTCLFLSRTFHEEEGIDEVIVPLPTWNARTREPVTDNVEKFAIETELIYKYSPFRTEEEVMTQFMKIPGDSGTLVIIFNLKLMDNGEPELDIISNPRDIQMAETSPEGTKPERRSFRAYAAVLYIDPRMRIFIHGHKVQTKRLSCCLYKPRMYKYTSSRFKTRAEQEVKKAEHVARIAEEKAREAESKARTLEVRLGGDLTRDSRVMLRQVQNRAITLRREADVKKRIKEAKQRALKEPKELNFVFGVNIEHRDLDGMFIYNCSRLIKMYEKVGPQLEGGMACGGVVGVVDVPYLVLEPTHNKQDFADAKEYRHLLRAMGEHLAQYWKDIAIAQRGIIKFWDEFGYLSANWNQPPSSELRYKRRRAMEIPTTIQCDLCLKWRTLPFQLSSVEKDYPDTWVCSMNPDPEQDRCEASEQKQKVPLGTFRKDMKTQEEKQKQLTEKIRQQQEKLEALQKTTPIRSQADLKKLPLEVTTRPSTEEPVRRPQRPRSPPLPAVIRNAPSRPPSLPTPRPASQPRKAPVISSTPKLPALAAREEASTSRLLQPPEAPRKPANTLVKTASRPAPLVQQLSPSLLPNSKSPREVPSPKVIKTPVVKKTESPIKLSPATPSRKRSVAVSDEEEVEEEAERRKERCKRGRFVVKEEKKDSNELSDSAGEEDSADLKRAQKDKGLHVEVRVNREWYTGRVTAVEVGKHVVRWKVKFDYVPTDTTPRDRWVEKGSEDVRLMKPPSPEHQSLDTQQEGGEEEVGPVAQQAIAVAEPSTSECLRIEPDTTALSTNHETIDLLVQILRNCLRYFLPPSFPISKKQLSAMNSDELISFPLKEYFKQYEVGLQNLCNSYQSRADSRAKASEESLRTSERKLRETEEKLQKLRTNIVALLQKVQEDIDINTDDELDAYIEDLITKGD

binding [1]: binds
binding [2]: binds
Substance: endogenous CHD4 (chromodomain helicase DNA binding protein 4) (from UniProt Q14839 1-1912) (enzyme)

binding [3]: binds
Substance: endogenous UBC9 (from UniProt P63279 1-158) (enzyme)

binding [4]: binds
Substance: Recombinant Flag-TRIM28 protein (from UniProt Q13263 1-835) (enzyme)

binding [5]: binds
binding [6]: binds
Substance: endogenous TRIM28 (from UniProt Q13263 1-835) (enzyme)
